Assay results: the supplement of paper PMC12632987
Over roughly 4,500 sequences, “median log2 fold change of GCK-ALFA target abundance (FLAG IP / Myc IP barcode read proportion)” has its median near 0.078; the lowest 2% begin near -0.6. The list shows a part of the results.

B1: GBRAP_128_3475 (protein)
chain: SVEAVVEETRRTMREIIEADLETARELAEELFARLAGLPLEAVEAAVEVIESLLPELSAEKLEILAEVADAARPAFDPEKAALLADLASEALLLAEEKEE
B2: GBRAP_83_6914 (protein)
chain: MKEITVVAAGDHIEEAFEAAIDLHKEGVDHIILEVIIRPEQFPTLEAGVARMLAAGVKLDLHVLVEGGTEEEAAALQARLEAIAAAAGRDVKVTVEVIKP
B3: GBRAP_35_5578 (protein)
chain: EDKEMLLETVRDLAEATIEAIKEGDLDLAIALLEALLRTAELAVEELANDAEALEEIAALLERVIAAIKEHLADDPRVQALLARLEALLARTKALLAAVK
B4: GBRAP_166_4911 (protein)
chain: SMEEKVEEAKKRIEELVKEMPKLDAEGQLEAAIEIAEVIRELKEAGASEEQIDEVLRFLAESLKKEGLDVKRLMAIVAAAAEFDEEEMDRVDEIVEEVLK
B5: GBRAP_52_5993 (protein)
chain: MREEARRIAEEAVELMLEGKEEEAEKLLREVAETKSEEFLELVAEELARLAEEAGPEERDAIVEVAIMLEDIMREKGFDEAIADDQLARVAAAAYEALLR
B6: GBRAP_150_3926 (protein)
chain: DLETLLTIVDTLIDLLEGIADGELSLVPHALKLAEAAREEAKELPEEIREPVLEKLERIIKYLKEIAAGAPEEERKKLIEEALRLAEEVRELVEKEIERS
B7: GBRAP_78_6692 (protein)
chain: EVEELLDKALEHLGKAASILAKMNTPEANDLLGEVLDVASTVEEALFGEADLEELKEAAKKLEEALKKAKKIDTPEAKEAAKELEKALKYLKEAIKKLEA
B8: GBRAP_184_5259 (protein)
chain: KVLERVVEAKNVEELKKKMEEIAKEALKSGADVIILLEVEKLTKEMIDALFESIKKLKESGYKGKITVGIDADLTEEMIDYAIEKADEAGVNLTLAIDEE
B9: GBRAP_52_5873 (protein)
chain: MLEEAVEKLKEAVEAMKAGKEEEAKKILKEIVEKFDDETIVEAVKKLAEEVLEKSLEEAKAFYETVELLSEIMIEEGRDENIASYLEAIAGATLYKVEQK
B10: GBRAP_78_6716 (protein)
chain: ELEKVLEKAIEVLNEAAKLALTLPEEKANEILDLIVEATNLLEEILEPGVKKEEAIKKLEEAAKLLKKAIELLGDEDPELRKKLEEALKLVKEALKIAKE
B11: GBRAP_52_5862 (protein)
chain: MREEIRKKLEEMLALVKAGDLEGAEKLAEELVKSLTEEEVELLIEVAAELALSLAPEDLDAMWTLTELIAKALEKAGFPEELVTLFEDEVGAAIAKVEAA
B12: GBRAP_166_4977 (protein)
chain: SQKEIVEKVKKYIDELAEKMKTANHEEKLELLAEAAEKIEEARKAGISKEQLKELIKYLIEKALAVGLTLSEVEGALRIIANLDEEEIDLLDEAIAEVKA
B13: GBRAP_128_3359 (protein)
chain: LDEELLKKAKELVEKILKADVEEAKELTKEILKLMKEATDEEAEAIVKILIEALPKLTAEKLEAIADAMREARPEATPYKANLIAEAEVEALNEAEEKEE
B14: GBRAP_184_5228 (protein)
chain: TTVNRSVEAKTEEELIAKIDAVVAEAAAAGEKLNLHAFAENVSLEGIRRIMAHLAELKAAGRIADATLVITDERSEEEIDELVALADEYGVKLVIALSEE
B15: GBRAP_35_5526 (protein)
chain: SSEETAAEMLAAFIEDLTLAVPDMPVEQLVALSLAAAKTARELAKELKDNLESLQLLLEAVEALIEAIRKHHGDDPLAQEAVAALEEVAKELKKRIKEAE
B16: GBRAP_160_4198 (protein)
chain: SEKIEEVIRLIREETEEVIALLDEESVEEVAVFAAVEFGSVLMEAVELGIENDEIEDIIADAGDAVVATLKAKADASVEELKAAIRAITDKAIEEIKKAA
B17: GBRAP_52_6085 (protein)
chain: MEEEIEERAEEIYEAIKAGDKEKALALIKKAIKEFSAEEIKRMLELTAKRVASLGDDAHELFVDILGEAEDLLIEAGISEEEALAIVGAAEAALARAVAA
B18: GBRAP_80_6783 (protein)
chain: MEEEIEKVIEEIEKIDPEVAKVVKEIVELLKEIGVPLEIILEIVETILDGKDLPKEELLKIAKEVLKEAKELAEYKDEFSPEDIGKMVLAVALTELEEAE
B19: GBRAP_160_3981 (protein)
chain: SAEIEKLKKEIKEIFEEAKEMIEGESYEERLAIIRVAVGEIILLVEEDPNTSDETVEKVAEIGDELVEYIEEHPELTEEEIKELIEEALEKILKVIDEDA
B20: GBRAP_52_6377 (protein)
chain: AVEEAKKLLREAIELIMKGGPKEEVEALAKKLLEYPEEVIEEAAEKLAEELKGWSPEEAEKALEAAIELSDILIELGLPEEVASYIEAEIGKAAYEVLQK
B21: GBRAP_78_6602 (protein)
chain: EVEELLEKALEELDKAEKLTKELPEEKRNELLSLLVEARSSLLEAFENKPDLKDLEEALKYVEEAIKLAKEIDTEEAKKLLKELEKAKEYLKKAIELLKK
B22: GBRAP_78_6619 (protein)
chain: ETKEKIIELLDRARDRMREIARREPEVRDLANEAAVLVGTAILMVDTGEESKEEIIEELEEALKVAKELLERLEGRDEESVKLAKEAIEDLKKAIELVKK
B23: GBRAP_184_5249 (protein)
chain: AVSSLELTVRSAEDIPAAVAAFAAHAAAHKGTLHVLLDAENLTTDEKATLVAALGAAAAAAGVTRLIIDLTEEVTEEEADKLIATADAHGVQLVLALKDE
B24: GBRAP_43_5785 (protein)
chain: SEELVAGALETAELLFELPEVSDEQKVRAAIAAFDLAADEGIDDKEAIAKVVKAAAASLSKAALEKLLAHAKELAKKHPELKATFDAAAATLAAAIAAKA
B25: GBRAP_52_5918 (protein)
chain: MKERIRKIAEEILEAAEAGKEEEMEKLIKKAVEELNTEELKELIEELAELTIERGPEYYDIAAKIFDILEDEVEEAGKDVEEIDYAIARAFGKIYKALQA
B26: GBRAP_128_3220 (protein)
chain: MAEEAEEKVRELLEKIKEADEEERKKLAKELAELVASQPVEVAEAMAKVVEELAPELSEEDLEILMEAFEEAARARDDEVSLVLAEIAIIFGEQILELEE
B27: GBRAP_52_6015 (protein)
chain: MREELRAFLLEVLALVRAGKEEEARALLRERVAALDEEELELLIEELAELARAAAPEDQEAVWRLAEMLAEELEEAGVDEALADDLEARVAAALYEAEQR
B28: GBRAP_195_5413 (protein)
chain: RKVVAEVLTVTAEDTPEQILAKIRAIVERNKAESNGDLVLVVRRDPSVPASVIRDAVAEAQAAFPEIKITVTIFDDISLPLETAERFAAMEAANLAEELE
B29: GBRAP_160_4336 (protein)
chain: SERTEKLKKFIREEFEEAKKLIEGQSIEQRKVIIEGTFGVIFMELSEDPNVSDELLDKVIEIEDELLETIDENPDLSEEEIKELIDEAEKKIIEALDKSE

Molecular target: GABARAP, O95166
Assay: median log2 fold change of GCK-ALFA target abundance (FLAG IP / Myc IP barcode read proportion) (log2 ratio); each designed protein is fused to an ALFA-tag nanobody in HEK293 cells to bring the named protein to FLAG-tagged glucokinase (GCK); Myc marks an untargeted standard; higher = target protein stabilised (more abundant)
Details: target protein: 3xFLAG-MCP-GCK-ALFA reporter; HEK293 landing pad (RPLP)
Method in brief: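 An ALFA-nanobody-fused binder library was recombined into HEK293 landing-pad cells and induced with 2 μg mL^−1 doxycycline. Cells were transfected with a plasmid expressing a FLAG-tagged target and a Myc-tagged standard. After 48 h, lysates underwent anti-FLAG and anti-Myc immunoprecipitation, and circular RNA barcodes were reverse transcribed, amplified and sequenced. Target abundance is the per-binder median log2 ratio of FLAG to Myc barcode read proportions. Barcodes needed ≥10^−7 proportion in both replicates, binders ≥3 barcodes per replicate, and a 10^−6 pseudocount was added; the two replicates were pooled.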

GABARAP, O95166, sequence (O95166 whole entry, the tested form may be a part): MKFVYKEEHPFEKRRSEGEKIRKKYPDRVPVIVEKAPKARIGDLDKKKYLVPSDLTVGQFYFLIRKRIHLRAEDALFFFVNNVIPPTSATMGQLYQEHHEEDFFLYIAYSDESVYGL

Row | Binder | median log2 fold change
1 | B1 | 0.161
2 | B2 | -0.0485
3 | B3 | -0.85
4 | B4 | 0.203
5 | B5 | -0.364
6 | B6 | 0.227
7 | B7 | -0.128
8 | B8 | 0.225
9 | B9 | 0.134
10 | B10 | 0.202
11 | B11 | 0.15
12 | B12 | 0.288
13 | B13 | 0.418
14 | B14 | 0.09
15 | B15 | -0.452
16 | B16 | -0.373
17 | B17 | -0.146
18 | B18 | 0.0366
19 | B19 | -0.219
20 | B20 | -0.15
21 | B21 | 0.165
22 | B22 | 0.338
23 | B23 | -0.0297
24 | B24 | 0.176
25 | B25 | 0.0218
26 | B26 | 0.0875
27 | B27 | -0.209
28 | B28 | 0.0958
29 | B29 | -0.0857
